Measured values: US10889573B2, “Anthelmintic quinoline-3-carboxamide derivatives” (Bayer Animal Health GMBH, priority 2016, dated 2021)
Like-named read-outs stand apart in the source and are kept apart here. Some of these results come from one statement about several compounds together. At least one compound was matched to its structure with a doubt left.

Legend:
[1] = tested on: Nippostrongylus brasiliensis; experiment: In vitro assay 2: Nippostrongylus brasiliensis (NIPOBR), acetylcholine esterase readout
Procedure: In Vitro Assay 2: Nippostrongylus brasiliensis (NIPOBR)
Adult Nippostrongylus brasiliensis were washed with saline buffer containing 100 U/ml penicillin, 0.1 mg/ml streptomycin and 2.5 μg/ml amphotericin B. Test compounds were dissolved in DMSO and worms were incubated in medium in a final concentration of 10 μg/ml (10 ppm) respectively 1 μg/ml (1 ppm). An aliquot of the medium was used to determine the acetylcholine esterase activity in comparison to a negative control. The principle of measuring acetylcholine esterase as readout for anthelmintic activity was described in Rapson et al (1986) and Rapson et al (1987).

Cooperia curticei = settings: after 5 days

SMILES	activity (reduction of AChE compared to negative control) ([1]; 1 μg/ml)	activity (larval mortality) (Cooperia curticei; 4 ppm)	activity (larval mortality) (Cooperia curticei; 20 ppm)	activity (reduction of AChE compared to negative control) ([1]; 10 μg/ml)
O=C(NC1CCOc2ccccc21)c1cnc2c(-c3cc(Cl)c(F)c(Cl)c3)cccc2c1N1CCC(O)C1 (mixture of isomers) [Example 193]	higher than 80%	90%	100%	
CN(C)c1c(C(=O)N[C@H]2CCc3ccccc32)cnc2c(-c3cc(Cl)cc(Cl)c3)c(F)ccc12 [Example 21]	higher than 80%		80%	higher than 80%
CN(C)c1c(C(=O)N[C@H]2CCOc3ccccc32)cnc2c(-c3ccc(F)c(F)c3)cccc12 [Example 30]			80%	
CN(C)c1c(C(=O)N[C@H]2CCOc3ccccc32)cnc2c(-c3cc(Cl)c(F)c(Cl)c3)cc(F)cc12 [Example 41]	higher than 80%		80%	higher than 80%
CN(C)c1c(C(=O)N[C@H]2CCOc3ccccc32)cnc2c(-c3cc(F)cc(F)c3)cccc12 [Example 49]	higher than 80%		80%	higher than 80%
O=C(N[C@H]1CCOc2ccccc21)c1cnc2c(-c3cc(Cl)c(F)c(Cl)c3)cccc2c1N1CCOCC1 [Example 54]	higher than 80%	90%	90%	higher than 80%
Nc1c(C(=O)N[C@H]2CCOc3ccccc32)cnc2c(-c3cc(Cl)cc(Cl)c3)cccc12 [Example 58]	higher than 80%	80%	80%	higher than 80%
CN(C)c1c(C(=O)N[C@H]2CCOc3ccccc32)cnc2c(-c3ccnc(Cl)c3)cccc12 [Example 65]	higher than 80%		80%	higher than 80%
O=C(N[C@H]1CCc2ccccc21)c1cnc2c(-c3cc(Cl)cc(Cl)c3)cccc2c1N1CCC[C@H]1C(=O)O [Example 80]	higher than 80%	80%	90%	
COCCNc1c(C(=O)N[C@H]2CCc3ccccc32)cnc2c(-c3cc(Cl)cc(Cl)c3)cccc12 [Example 89]	higher than 80%		80%	higher than 80%
O=C(N[C@H]1CCc2ccccc21)c1cnc2c(-c3cc(Cl)cc(Cl)c3)cccc2c1N1CCCO1 [Example 108]	higher than 80%	80%	90%	higher than 80%
CC(=O)NNc1c(C(=O)N[C@H]2CCOc3ccccc32)cnc2c(-c3cc(Cl)cc(Cl)c3)cccc12 [Example 154]	higher than 80%		80%	
O=C(N[C@H]1CCOc2ccccc21)c1cnc2c(-c3cc(F)cc(Cl)c3)cc(F)cc2c1N1CCOCC1 [Example 163]	higher than 80%	80%	80%	
CN(C)c1c(C(=O)N[C@H]2CCOc3ccccc32)cnc2c(-c3cccc(Cl)c3F)c(F)ccc12 [Example 171]	higher than 80%	80%		
O=C(N[C@H]1CCOc2ccccc21)c1cnc2c(-c3cc(Cl)cc(Cl)c3)cccc2c1N1CCSCC1 [Example 181]	higher than 80%		80%	
O=C(N[C@H]1CCOc2ccccc21)c1cnc2c(-c3cc(Cl)cc(Cl)c3)cccc2c1N1CCC(F)(F)C1 [Example 201]	higher than 80%	80%	90%	
O=C(N[C@H]1CCOc2ccccc21)c1cnc2c(-c3cc(Cl)cc(Cl)c3)cc(Cl)cc2c1N1CCOCC1 [Example 211]	higher than 80%	80%	80%	
O=C(N[C@H]1CCOc2ccccc21)c1cnc2c(-c3cccc(Cl)c3Cl)cc(Cl)cc2c1N1CCOCC1 [Example 212]	higher than 80%	80%	80%	
COc1cc(Cl)cc(-c2cccc3c(N4CCOCC4)c(C(=O)N[C@H]4CCOc5ccccc54)cnc23)c1 [Example 228]	higher than 80%		80%	
Cc1cc(Cl)cc(-c2cccc3c(N4CCOCC4)c(C(=O)N[C@H]4CCOc5ccccc54)cnc23)c1F [Example 239]	higher than 80%		80%	
Cc1cc(Cl)c(F)c(-c2cccc3c(N4CCOCC4)c(C(=O)N[C@H]4CCOc5ccccc54)cnc23)c1 [Example 240]	higher than 80%	80%	90%	
O=C(N[C@H]1CCOc2ccccc21)c1cnc2c(-c3cc(Cl)cc(Cl)c3)cccc2c1NCCNC1CC1 [Example 286]		80%		

SMILES	activity (reduction of AChE compared to negative control) ([1]; 1 μg/ml)	activity (larval mortality) (Cooperia curticei; 4 ppm)	activity (larval mortality) (Cooperia curticei; 20 ppm)	activity (reduction of AChE compared to negative control) ([1]; 10 μg/ml)
CN(C)c1cc(Cl)cc(-c2cccc3c(N(C)C)c(C(=O)N[C@H]4CCOc5ccccc54)cnc23)c1 [Example 294]	higher than 80%		80%	
COc1cc(-c2cc(Cl)cc(Cl)c2)c2ncc(C(=O)N[C@H]3CCOc4ccccc43)c(N3CCOCC3)c2c1 [Example 498]	higher than 80%			
COc1cc(-c2cc(Cl)cc(Cl)c2)c2ncc(C(=O)N[C@H]3CCOc4ccccc43)c(N(C)C)c2c1 [Example 501]	higher than 80%			
O=C(N[C@H]1CCOc2ccccc21)c1cnc2c(-c3cccc(Cl)c3Cl)cc(O)cc2c1N1CCOCC1 [Example 517]	higher than 80%			
O=C(N[C@H]1CCOc2ccccc21)c1cnc2c(-c3cc(Cl)cc(Cl)c3)cccc2c1-c1cnn(C(F)F)c1 [Example 520]	higher than 80%			
CN(C)c1c(C(=O)N[C@H]2CCOc3ccccc32)cnc2c(-c3cc(Cl)cc(Cl)c3)c(O)ccc12 [Example 561]	higher than 80%			
Cc1c(C(=O)N[C@H]2CCOc3ccccc32)cnc2c(-c3cccc(OC(F)(F)F)c3)cccc12 [Example 571]	higher than 80%			
CCc1cc(CC)cc(-c2cccc3c(N(C)C)c(C(=O)N[C@H]4CCOc5ccccc54)cnc23)c1 [Example 574]	higher than 80%			
CCc1cc(CC)c(Cl)c(-c2cccc3c(N(C)C)c(C(=O)N[C@H]4CCOc5ccccc54)cnc23)c1 [Example 582]	higher than 80%			
Cc1cc(-c2cccc3c(N(C)C)c(C(=O)N[C@H]4CCOc5ccccc54)cnc23)cc(C(C)(C)C)c1 [Example 586]	higher than 80%			
CCc1cc(CC)cc(-c2cccc3c(N4CCOCC4)c(C(=O)N[C@H]4CCOc5ccccc54)cnc23)c1 [Example 588]	higher than 80%			
Cc1cc(C#N)cc(-c2cccc3c(N4CCOCC4)c(C(=O)N[C@H]4CCOc5ccccc54)cnc23)c1 [Example 594]	higher than 80%			
Cc1cc(C#N)cc(-c2cccc3c(N(C)C)c(C(=O)N[C@H]4CCOc5ccccc54)cnc23)c1 [Example 598]	higher than 80%			
O=C(N[C@H]1CCOc2ccccc21)c1cnc2c(-c3cc(Cl)ccc3F)c(OC(F)(F)F)ccc2c1N1CCOCC1 [Example 609]	higher than 80%			higher than 80%
O=C(N[C@H]1CCOc2ccccc21)c1cnc2c(-c3cccc(Cl)c3Cl)c(OC(F)(F)F)ccc2c1N1CCOCC1 [Example 610]	higher than 80%			higher than 80%
O=C(N[C@H]1CCOc2ccccc21)c1cnc2c(-c3cc(Cl)cc(Cl)c3)c(OC(F)(F)F)ccc2c1N1CCOCC1 [Example 611]	higher than 80%			higher than 80%
CN(C)c1c(C(=O)N[C@H]2CCOc3ccccc32)cnc2c(-c3cc(Cl)ccc3F)c(OC(F)(F)F)ccc12 [Example 612]	higher than 80%			higher than 80%
CN(C)c1c(C(=O)N[C@H]2CCOc3ccccc32)cnc2c(-c3cccc(Cl)c3Cl)c(OC(F)(F)F)ccc12 [Example 613]	higher than 80%			higher than 80%
CN(C)c1c(C(=O)N[C@H]2CCOc3ccccc32)cnc2c(-c3cc(Cl)cc(Cl)c3)c(C#N)ccc12 [Example 617]	higher than 80%			higher than 80%
CN(C)c1c(C(=O)N[C@H]2CCOc3ccccc32)cnc2c(-c3cc(Cl)ccc3F)cc(O)cc12 [Example 618]	higher than 80%			higher than 80%
O=C(N[C@H]1CCOc2ccccc21)c1cnc2c(-c3cc(Cl)cc(Cl)c3)cc(O)cc2c1N1CCOCC1 [Example 627]	higher than 80%			
